# Laboratory results published in US20100184677A1, “USE OF THE HUMAN PANCREATIC POLYPEPTIDE AS A THERAPEUTIC AGENT” (priority 2007, published 2010).
# System: CEM-SS cells
# Assay: Cytotoxicity (MTS cell viability) in CEM-SS cells
# Conditions: peptide 10 micrograms per ml
structure (smiles),measurement,value
Cc1cn([C@H]2C[C@H](N=[N+]=[N-])[C@@H](CO)O2)c(=O)[nH]c1=O [AZT],% Cell viability,97%
